Experimental data from PubChem BioAssay AID686970 (National Center for Advancing Translational Sciences (NCATS), 2013).
The campaign covered roughly 360,000 compounds. About 6,000 (1.7%) were called active. This list was built around the results that the source calls inconclusive (neither active nor inactive); the mix of calls is not that of the screen. The call rests on the fitted dose curve; in most records, active means well fitted cell-killing curve with a large enough effect; inconclusive means small, poorly fitted or top-dose-only effect, or effect the other way; inactive means flat fitted curve, though single readings scatter. Potencies of inconclusive entries are left out as doubtful fits.

Test: qHTS for induction of synthetic lethality in tumor cells producing 2HG: qHTS for the HT-1080-NT fibrosarcoma cell line;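 further: NT is the 2HG producing partner of a matched IDH1 knockdown line; nearly all actives have a fitted effect of over 55% in size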
Details: HT-1080-NT fibrosarcoma viability, CellTiter-Glo ATP luminescence, 48 h; series mostly up to 46.1 µM
Method in brief: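 750 cells/well, RPMI + 5% FBS; 2 h settle, compound pin-transfer, 48 h at 37 degrees C. CellTiter-Glo 10 min RT, luminescence. Normalized to DMSO and media-only wells.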
Potency means the concentration at half of the fitted maximal effect; tags describe the fitted curve by direction and shape.

Row | SMILES | Potency
1 | Clc1ccc(C2N3CCCN23)c(Cl)c1 (centres undefined) | inconclusive [rising, full curve]
2 | Nc1c(C(=O)NCCCc2ccccc2)c2nc3ccccc3nc2n1Cc1cccs1 | inconclusive [cytotoxic, single point]
3 | Cc1c(NS(=O)(=O)c2ccccc2)ccc([N+](=O)[O-])c1Cl | active: 2.91 µM
4 | O=c1[nH]c2ccccc2n1C1CCN(C(c2ccccc2)c2nnnn2-c2ccc3c(c2)OCCO3)CC1 (centres undefined) | inconclusive [cytotoxic, single point]
5 | COc1ccc(C(C)=O)cc1CN1CC=C(c2ccccc2)CC1 | inactive
6 | C=CCn1c(O)c(C(C)=NCc2ccc3c(c2)OCO3)c(=O)[nH]c1=O | inconclusive [cytotoxic, partial curve, poor fit]
7 | Nc1ncc2[nH]cnc2n1 | inconclusive [rising, full curve, poor fit]
8 | OCC1OC(n2cnc3cc(Cl)c(Cl)cc32)C(O)C1O (centres undefined) | inconclusive [cytotoxic, single point]
9 | CCOC(=O)c1ccc(N=C(C)c2c(O)[nH]c(=O)[nH]c2=O)cc1 | inconclusive [cytotoxic, partial curve]
10 | CN(C)C1(CNC(=O)Nc2ccc(Cl)c(Cl)c2)CCCCC1 | active: 20.6 µM
11 | COc1cc(CN=Cc2c(O)n(C(C)(C)C)c(=O)[nH]c2=O)cc(OC)c1 | inconclusive [cytotoxic, partial curve]
12 | CC1([N+](=O)[O-])COP(=O)(NC2CC2)OC1 (centres undefined) | inactive
13 | CC(C)CCNC(=O)c1c(N)n(CC2CCCO2)c2nc3ccccc3nc12 (centres undefined) | inconclusive [cytotoxic, single point]
14 | CC1CCOC(=O)C=CC=CC(=O)OC2CC3OC4C5OC5(C)C(O)CC4(COC(=O)C1O)C2(C)C31CO1 (centres undefined) | inconclusive [cytotoxic, full curve]
15 | CC[C@H](OC(C)=O)C(C[C@H](C)N(C)C)(c1ccccc1)c1ccccc1 | inconclusive [cytotoxic, partial curve, poor fit]
16 | COC(=O)C1=C(c2ccc(OCc3ccccc3)cc2)C[C@@H]2CC[C@H]1N2C(=O)NCc1ccc(OC)c(OC)c1 | inactive
17 | CC(=O)c1ccc2c(c1)N(CCCN(C)C)c1ccccc1S2 | inconclusive [cytotoxic, partial curve, poor fit]
18 | Cc1cc(C)cc(N2C(=O)NC(=O)/C(=C\c3cccn3-c3ccc(Cl)cc3)C2=O)c1 | inconclusive [cytotoxic, partial curve]
19 | Cc1ccc(N)c(C(=O)c2ccccc2)c1 | inactive
20 | Cc1ccc(N=Nc2c(O)[nH]c(=O)[nH]c2=O)c([N+](=O)[O-])c1 | inactive
21 | CCNc1nc(NC(C)(C)C)nc(SC)n1 | inactive
22 | C=CCn1c(O)c(C(CC)=NCCc2ccccc2)c(=O)[nH]c1=O | inactive

Row | SMILES | Potency
23 | COc1cc(OC)c(/C=C2\C(=O)Nc3ccccc32)c(OC)c1 | inconclusive [cytotoxic, full curve]
24 | CCOC(C[n+]1c(-c2ccccc2)cc(C)cc1-c1ccccc1)OCC | inconclusive [cytotoxic, single point]
25 | CCC(=NCCOc1ccc(Cl)cc1)c1c(O)n(C)c(=O)n(C)c1=O | inconclusive [cytotoxic, single point]
26 | CC/C(=N\Nc1ccccc1)c1c(O)n(C)c(=O)n(C)c1=O | inconclusive [cytotoxic, single point]
27 | Nc1ccncc1 | inconclusive [rising, single point]
28 | CC(C)CCCn1c(O)c(/C=C2/C=CC=N2)c(=O)[nH]c1=O | active: 18.4 µM
29 | O=C1NC(=S)NC(=O)C1=Cc1cccc2cc3ccccc3cc12 | inconclusive [cytotoxic, single point]
30 | Cc1ccc(S(=O)(=O)c2nc(-c3ccccc3Cl)oc2N(C)C2CCN(C)CC2)cc1 | inconclusive [cytotoxic, single point]
31 | O=C(NC1CCCCC1)N1Cc2cc(-c3ccccc3)ccc2-n2nncc2C1 | inactive
32 | Cc1ccccc1N1C(=O)NC(=O)/C(=C\c2cnn(-c3ccccc3)c2)C1=O | inconclusive [cytotoxic, single point]
33 | CCOC(=O)[C@]12Cc3cc(Cl)ccc3[C@H]1N(Cc1ccccc1)C(=O)c1cc(OC)ccc12 | active: 14.6 µM
34 | Nc1ccccc1-[n+]1c(-c2ccccc2)cc(-c2ccccc2)cc1-c1ccccc1 | inconclusive [cytotoxic, single point]
35 | C[C@@H]1CN([C@H](C)CO)C(=O)CCCn2cc(nn2)CO[C@H]1CN(C)C(=O)Oc1cccc2ccccc12 | inactive
36 | O=C1NC(=O)C(=Cc2ccc(Sc3ccccc3)o2)C(=O)N1 | active: 18.4 µM
37 | COP(=O)(OC)c1nc(-c2cccc3ccccc23)oc1NCCc1ccccc1 | inconclusive [cytotoxic, single point]
38 | NC(Cc1ccc(Cl)cc1)c1csc(Nc2ccccn2)n1 (centres undefined) | active: 23.1 µM
39 | O=c1[nH]c(=O)n(C2CCCCCC2)c(O)c1C=NCc1ccc(F)cc1 | inconclusive [cytotoxic, partial curve]
40 | Fc1cccc(-c2ccc3c(c2)CN(C(=S)NCCc2ccccc2)Cc2cnnn2-3)c1 | inconclusive [cytotoxic, single point]
41 | Cc1nc2ccccc2c(=O)n1-c1cccc(O)c1 | inactive
42 | COc1ccc(C2=CC(c3ccc(OC)c(OC)c3)c3c(c4ccccc4oc3=O)O2)cc1OC (centres undefined) | inconclusive [cytotoxic, partial curve]
43 | CN(C)C(=O)C(CCN1CCC(O)(c2ccc(Cl)cc2)CC1)(c1ccccc1)c1ccccc1 | active: 18.4 µM
44 | OC[C@H]1O[C@@H](n2cnc3cc(Cl)c(Cl)cc32)[C@H](O)[C@@H]1O | inconclusive [cytotoxic, single point]
